# Data as given in the supplement of paper PMC8728848.
# The other results are listed elsewhere or left out.
# Experiments:
# Assay in all cases: glycan array binding signal (z-score within array); higher = stronger binding
# Settings in all cases: glycan notation: IUPAC condensed, linker removed
# Gal3S(b1-4)Glc = target: Gal3S(b1-4)Glc
# How it was run: (§1)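 The binding signal is a Z-score computed within each array and averaged over linkers. Arrays of the same protein sequence at different concentrations or buffers were also averaged together. Data originate from 3228 arrays in the Consortium for Functional Glycomics database, kept only where the protein sequence was available.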
# Gal3S(b1-4)Glc6S = target: Gal3S(b1-4)Glc6S
# How it was run: as §1
# Gal3S(b1-4)GlcNAc = target: Gal3S(b1-4)GlcNAc
# How it was run: as §1
# [1] = target: Gal3S(b1-4)[Fuc(a1-3)]Glc6S
# How it was run: as §1
# [2] = target: Gal3S(b1-4)[Fuc(a1-3)]GlcNAc
# How it was run: as §1
# [3] = target: Gal3S(b1-4)[Fuc(a1-3)]GlcNAc6S
# How it was run: as §1
# Gal3S4S(b1-4)GlcNAc = target: Gal3S4S(b1-4)GlcNAc
# How it was run: as §1
# Gal3S6S(b1-4)GlcNAc = target: Gal3S6S(b1-4)GlcNAc
# How it was run: as §1
# Gal3S6S(b1-4)GlcNAc6S = target: Gal3S6S(b1-4)GlcNAc6S
# How it was run: as §1
# Gal4S(b1-4)GlcNAc = target: Gal4S(b1-4)GlcNAc
# How it was run: as §1
# Gal4S6S(b1-4)GlcNAc = target: Gal4S6S(b1-4)GlcNAc
# How it was run: as §1
# Gal6P(b1-4)GlcNAc = target: Gal6P(b1-4)GlcNAc
# How it was run: as §1
# Gal6S(b1-3)GlcNAc = target: Gal6S(b1-3)GlcNAc
# How it was run: as §1
# Gal6S(b1-3)GlcNAc6S = target: Gal6S(b1-3)GlcNAc6S
# How it was run: as §1
# Gal6S(b1-4)Glc = target: Gal6S(b1-4)Glc
# How it was run: as §1
# Gal6S(b1-4)Glc6S = target: Gal6S(b1-4)Glc6S
# How it was run: as §1
# Gal6S(b1-4)GlcNAc = target: Gal6S(b1-4)GlcNAc
# How it was run: as §1
# Gal6S(b1-4)GlcNAc6S = target: Gal6S(b1-4)GlcNAc6S
# How it was run: as §1
# GalNAc(a1-3)Gal = target: GalNAc(a1-3)Gal
# How it was run: as §1
# GalNAc(a1-3)GalNAc = target: GalNAc(a1-3)GalNAc
# How it was run: as §1
# [4] = target: GalNAc(a1-3)GalNAc(b1-3)Gal(a1-4)Gal(b1-4)Glc
# How it was run: as §1
# [5] = target: GalNAc(a1-3)GalNAc(b1-3)Gal(a1-4)Gal(b1-4)GlcNAc
# How it was run: as §1
# GalNAc(b1-3)Gal = target: GalNAc(b1-3)Gal
# How it was run: as §1
# [6] = target: GalNAc(b1-3)Gal(a1-4)Gal(b1-4)GlcNAc
# How it was run: as §1
# [7] = target: GalNAc(b1-3)Gal(a1-4)Gal(b1-4)GlcNAc(b1-3)Gal(b1-4)Glc
# How it was run: as §1
# [8] = target: GalNAc(b1-3)Gal(a1-6)Gal(b1-4)Glc
# How it was run: as §1
# GalNAc(b1-3)GalNAc = target: GalNAc(b1-3)GalNAc
# How it was run: as §1
# GalNAc(b1-3)GlcNAc = target: GalNAc(b1-3)GlcNAc
# How it was run: as §1
# GalNAc(b1-4)Gal(b1-4)Glc = target: GalNAc(b1-4)Gal(b1-4)Glc
# How it was run: as §1
# GalNAc(b1-4)GlcNAc = target: GalNAc(b1-4)GlcNAc
# How it was run: as §1
# [9] = target: GalNAc(b1-4)GlcNAc(b1-2)Man
# How it was run: as §1
# [10] = target: GalNAc(b1-4)GlcNAc(b1-2)Man(a1-3)[GalNAc(b1-4)GlcNAc(b1-2)Man(a1-6)]Man(b1-4)GlcNAc(b1-4)GlcNAc
# How it was run: as §1
# [11] = target: GalNAc(b1-4)GlcNAc(b1-3)GalNAc(b1-4)GlcNAc
# How it was run: as §1
# GalNAc(b1-4)GlcNAc6S = target: GalNAc(b1-4)GlcNAc6S
# How it was run: as §1
# GalNAc(b1-6)GalNAc = target: GalNAc(b1-6)GalNAc
# How it was run: as §1
# GalNAc3S(b1-4)GlcNAc = target: GalNAc3S(b1-4)GlcNAc
# How it was run: as §1
# GalNAc3S(b1-4)GlcNAc3S = target: GalNAc3S(b1-4)GlcNAc3S
# How it was run: as §1
binder,measurement,setting,value
diCBM40 CPF071 (Clostridium perfringens) (protein) MAHHHHHHVGTGSNDDDDKSPDPMLSSLGEYKDINLESSNASNITYDLEKYKNLDEGTIVVRFNSKDSKIQSLLGISNSKTKNGYFNFYVTNSRVGFELRNQKNEGNTQNGTENLVHMYKDVALNDGDNTVALKIEKNKGYKLFLNGKMIKEVKDTNTKFLNNIENLDSAFIGKTNRYGQSNEYNFKGNIGFMNIYNEPLGDDYLLSKTGETKALNGSELGSGSGLSSLGEYKDINLESSNASNITYDLEKYKNLDEGTIVVRFNSKDSKIQSLLGISNSKTKNGYFNFYVTNSRVGFELRNQKNEGNTQNGTENLVHMYKDVALNDGDNTVALKIEKNKGYKLFLNGKMIKEVKDTNTKFLNNIENLDSAFIGKTNRYGQSNEYNFKGNIGFMNIYNEPLGDDYLLSKTGETK,glycan array binding signal (z-score),Gal3S(b1-4)Glc,-0.324
same,glycan array binding signal (z-score),Gal3S(b1-4)Glc6S,-0.327
same,glycan array binding signal (z-score),Gal3S(b1-4)GlcNAc,-0.257
same,glycan array binding signal (z-score),[1],0.268
same,glycan array binding signal (z-score),[2],-0.338
same,glycan array binding signal (z-score),[3],-0.262
same,glycan array binding signal (z-score),Gal3S4S(b1-4)GlcNAc,-0.198
same,glycan array binding signal (z-score),Gal3S6S(b1-4)GlcNAc,-0.139
same,glycan array binding signal (z-score),Gal3S6S(b1-4)GlcNAc6S,-0.172
same,glycan array binding signal (z-score),Gal4S(b1-4)GlcNAc,-0.224
same,glycan array binding signal (z-score),Gal4S6S(b1-4)GlcNAc,-0.309
same,glycan array binding signal (z-score),Gal6P(b1-4)GlcNAc,-0.249
same,glycan array binding signal (z-score),Gal6S(b1-3)GlcNAc,-0.253
same,glycan array binding signal (z-score),Gal6S(b1-3)GlcNAc6S,-0.337
same,glycan array binding signal (z-score),Gal6S(b1-4)Glc,-0.119
same,glycan array binding signal (z-score),Gal6S(b1-4)Glc6S,-0.229
same,glycan array binding signal (z-score),Gal6S(b1-4)GlcNAc,-0.279
same,glycan array binding signal (z-score),Gal6S(b1-4)GlcNAc6S,-0.287
same,glycan array binding signal (z-score),GalNAc(a1-3)Gal,-0.259
same,glycan array binding signal (z-score),GalNAc(a1-3)GalNAc,-0.216
same,glycan array binding signal (z-score),[4],-0.324
same,glycan array binding signal (z-score),[5],-0.334
same,glycan array binding signal (z-score),GalNAc(b1-3)Gal,-0.227
same,glycan array binding signal (z-score),[6],-0.317
same,glycan array binding signal (z-score),[7],-0.306
same,glycan array binding signal (z-score),[8],-0.235
same,glycan array binding signal (z-score),GalNAc(b1-3)GalNAc,-0.314
same,glycan array binding signal (z-score),GalNAc(b1-3)GlcNAc,-0.339
same,glycan array binding signal (z-score),GalNAc(b1-4)Gal(b1-4)Glc,-0.314
same,glycan array binding signal (z-score),GalNAc(b1-4)GlcNAc,-0.232
same,glycan array binding signal (z-score),[9],-0.206
same,glycan array binding signal (z-score),[10],-0.337
same,glycan array binding signal (z-score),[11],-0.173
same,glycan array binding signal (z-score),GalNAc(b1-4)GlcNAc6S,-0.227
same,glycan array binding signal (z-score),GalNAc(b1-6)GalNAc,-0.244
same,glycan array binding signal (z-score),GalNAc3S(b1-4)GlcNAc,-0.307
same,glycan array binding signal (z-score),GalNAc3S(b1-4)GlcNAc3S,-0.256
